Assay results from PubChem BioAssay AID686978 (National Center for Advancing Translational Sciences (NCATS), 2013).
Out of some 420,000 compounds screened, about 64,000 (15%) were called active. Inconclusive results, whose numbers are uncertain, are shown with a selection of clear calls. Calls come from the whole dose curve; as a rule, active = well fitted inhibition curve with a large enough effect; inconclusive = small, poorly fitted or top-dose-only effect; inactive = flat fitted curve, though single readings scatter. No potency is given beside an inconclusive call; the fits are too rough.

Assay: qHTS for Inhibitors of human tyrosyl-DNA phosphodiesterase 1 (TDP1): qHTS in cells in absence of CPT; note: nearly all actives have a fitted effect of over 55% in size
Settings: DT40 Tdp1-/- hTDP1 cells, no CPT, ATP luminescence, 48 h; activity change, negative = growth inhibition: at 46.2 µM (top of the series)
Summary of the method: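 No-CPT arm: Tdp1-/-;hTDP1 DT40 cells (400/well) plus compounds, incubated ≥48 hr at 37 °C. Readout CellTiter-Glo luminescence.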
% is set by controls: 0 for no effect and ±100 for the full control effect; potency is the fitted concentration of half-maximal effect; tags give direction and shape of the fitted curve.

Compound	activity change, negative = growth inhibition	Potency
O=C(O)CCCN1C(=O)C(=O)/C(=C(/O)c2ccc(Cl)cc2)C1c1ccccc1 (stereo not given)	inactive: 5.77%	
O=S(=O)(c1ccccc1)N1CCN(c2nnc(-c3ccccc3)c3ccccc23)CC1		active: 14.6 µM
CC(C)Oc1cc(F)ccc1-c1cc(C(=O)Nc2cccc(Cl)c2)[nH]n1		inconclusive [inhibitor, single point]
CCOC(=O)CC1NCCc2c1[nH]c1ccc(OC)cc21 (stereo not given)		inconclusive [inhibitor, single point]
O=C(c1cccs1)N(C(=O)c1cccs1)c1ccccn1	inactive: -1.91%	
O=C(C1COc2ccccc2O1)N1CCN(c2nc3ccc(F)cc3s2)CC1 (stereo not given)		active: 20.6 µM
CCN(c1ccccc1)S(=O)(=O)c1ccc(C(=O)NCCc2ccc(S(N)(=O)=O)cc2)cc1		inconclusive [inhibitor, single point]
O=C(O)c1cc(-n2cccc2)ccc1N1CCOCC1	inactive: 0.521%	
CC1(C(=O)NS(=O)(=O)Cc2cccc(Cl)c2)CCN1C(=O)c1ccc(C2CCCCC2)cc1 (stereo not given)	inactive: -2.75%	
O=S(=O)(c1ccccc1)N1CCC2(CCN(c3ccc(-c4ccccc4)cc3)CC2)CC1	inactive: -6.21%	
COc1ccc(CCNC(=O)CSc2nnc(-c3cccc(F)c3)o2)cc1OC	inactive: -4.14%	
COc1ccc(-c2noc(CCC(=O)NCCc3ccccc3)n2)cc1OC	inactive: -9.67%	
O=C(COC(=O)CNS(=O)(=O)c1ccccc1)NC12CC3CC(CC(C3)C1)C2	inactive: -26.4%	
O=S(=O)(c1ccc(Br)cc1Cl)N1CCCN(c2ccc(C(F)(F)F)cn2)CC1		inconclusive [inhibitor, single point]
CCOc1ccc(CNC(=O)CSc2cc(=O)n(CC)c3ccccc23)cc1		inconclusive [inhibitor, single point]
Cn1c(=O)c2c(nc(SCC(=O)Nc3ccccc3)n2Cc2ccccc2F)n(C)c1=O		inconclusive [inhibitor, full curve, poor fit]
Cc1ccc(S(=O)(=O)N2CCCCC2C)cc1[N+](=O)[O-] (stereo not given)		active: 14.6 µM
Cc1cccc(N2CCN(Cc3ccc(Br)o3)CC2)c1C	inactive: -24.5%	
COC(=O)c1ccc(NC(=O)c2cccc(C)c2[N+](=O)[O-])cc1	inactive: -17.2%	
COc1ccc(/C=N/NC(=O)c2c(C)nc3ccc(Br)cn23)cc1OC		active: 7.31 µM
CC1=C(C(=O)Nc2cc(C(=O)NCCCOC(C)C)ccc2C)SCCO1	inactive: -12.9%	
N#Cc1nc(Cc2cccc3ccccc23)oc1NCCN1CCCCC1		inconclusive [inhibitor, single point]
COC(=O)C1CCN(C(=O)Cn2nnc(-c3cccc(F)c3)n2)CC1	inactive: -12.7%	
COc1cc(CNc2ccc(N3CCCC3)cc2)ccc1OCc1ccccc1F		active: 4.61 µM
COc1ccc(C2NC(=O)C(C#N)=C(S)N2c2cccc(C)c2)cc1OC (stereo not given)		inconclusive [inhibitor, single point]

Compound	activity change, negative = growth inhibition	Potency
Fc1ccc(CNc2ncnc3onc(-c4ccc(F)cc4)c23)cc1		active: 23.1 µM
CCc1cccc(C)c1Nc1c(-c2ccccc2)nc2sccn12		active: 18.4 µM
CC(C)(C(=O)N1CCC1(C)C(=O)NS(=O)(=O)c1ccc(Cl)s1)c1ccccc1 (stereo not given)	inactive: -29.3%	
CNS(=O)(=O)c1cc(NC(=O)c2cncn2-c2ccccc2)ccc1C	inactive: -3.99%	
CCOc1ccc(CCNC(=O)COC(=O)c2cc(OC)c(OC)cc2[N+](=O)[O-])cc1OCC		inconclusive [inhibitor, single point]
COc1ccc(-n2nc(C(=O)NCC(=O)NCc3cccc(F)c3)c3ccccc3c2=O)cc1Cl		inconclusive [inhibitor, partial curve]
CNc1nc(NC)c2cn[nH]c2n1	inactive: 0.331%	
O=S(=O)(Nc1nc(SCc2ccc(Cl)cc2)n[nH]1)c1ccc(F)cc1		inconclusive [inhibitor, single point]
N#CC1=C(c2ccccc2)/C(=C/c2ccccc2)OC1=O		active: 18.4 µM
CCC(=O)N1c2ccccc2-c2nnc(SC)nc2OC1c1ccc(OC)c(OC)c1 (stereo not given)		inconclusive [inhibitor, full curve, poor fit]
O=S(=O)(c1ccc(Cl)cc1)c1snnc1-c1ccccc1		active: 4.11 µM
CCCS(=O)(=O)N1CCC(C(=O)NCCN(CC)c2ccccc2)CC1		inconclusive [inhibitor, single point]
CC1=[N+]([O-])C(C)(C)N(O)C1(C)C	inactive: -16.5%	
CCOC(=O)N1CCN(Cc2nc3cc(NC(=O)c4ccccc4[N+](=O)[O-])ccc3n2C(C)C)CC1		active: 16.4 µM
O=C(NC1CCCCC1)c1ccc(Cn2c(SCc3ccc(F)cc3)nc3cccnc32)cc1	inactive: -10.3%	
COCCCn1c(=N)c(C(=O)NCc2ccco2)cc2c(=O)n3ccccc3nc21	inactive: -27.9%	
CCCNC(=O)C1CCC(Cn2c(=O)c3sccc3n(Cc3ccccc3F)c2=O)CC1 (stereo not given)		inconclusive [inhibitor, single point]
O=C(Nc1ccccc1Sc1ccccc1)c1cnn2c1NC(=C1CC1)C=C2C(F)F		inconclusive [inhibitor, single point]
Cc1cccc(C)c1NC(=O)NCCc1c[nH]c2ccccc12		inconclusive [inhibitor, single point]
O=C(Nc1cccc2ccccc12)c1csc([C@@H]2O[C@H](CO)[C@@H](O)[C@H]2O)n1		inconclusive [inhibitor, single point]
Fc1ccc(NC(=S)Nc2cccc3ccccc23)cc1F		active: 16.4 µM
CCNc1ccc(P(=O)(c2ccccc2)c2ccccc2)cc1		inconclusive [inhibitor, partial curve]
O=c1nc(-c2ccccc2)c2ccccc2[nH]1	inactive: -19.5%	
COc1cccc(-c2nnn(CC(=O)Nc3cc(OC)c(NC(=O)c4ccco4)cc3OC)n2)c1		inconclusive [inhibitor, partial curve, poor fit]
COc1ccc(/C=N/NC(=S)NCC2CCCO2)cc1 (stereo not given)		inconclusive [inhibitor, single point]
